Assay results: PMC4336329 (PLoS ONE, 2015)
Hit rate of the full screen: of about 310,000 compounds, about 2,200 (0.71%) showed an effect of 50% or more. Effects have a minus sign here. This is one part of the list.

target: human ether-à-go-go-related gene (hERG) potassium channel (human, UniProt Q12809); assay: primary screen, population patch clamp on CHO cells stably expressing hERG
Sequence (Q12809 whole entry, looked up): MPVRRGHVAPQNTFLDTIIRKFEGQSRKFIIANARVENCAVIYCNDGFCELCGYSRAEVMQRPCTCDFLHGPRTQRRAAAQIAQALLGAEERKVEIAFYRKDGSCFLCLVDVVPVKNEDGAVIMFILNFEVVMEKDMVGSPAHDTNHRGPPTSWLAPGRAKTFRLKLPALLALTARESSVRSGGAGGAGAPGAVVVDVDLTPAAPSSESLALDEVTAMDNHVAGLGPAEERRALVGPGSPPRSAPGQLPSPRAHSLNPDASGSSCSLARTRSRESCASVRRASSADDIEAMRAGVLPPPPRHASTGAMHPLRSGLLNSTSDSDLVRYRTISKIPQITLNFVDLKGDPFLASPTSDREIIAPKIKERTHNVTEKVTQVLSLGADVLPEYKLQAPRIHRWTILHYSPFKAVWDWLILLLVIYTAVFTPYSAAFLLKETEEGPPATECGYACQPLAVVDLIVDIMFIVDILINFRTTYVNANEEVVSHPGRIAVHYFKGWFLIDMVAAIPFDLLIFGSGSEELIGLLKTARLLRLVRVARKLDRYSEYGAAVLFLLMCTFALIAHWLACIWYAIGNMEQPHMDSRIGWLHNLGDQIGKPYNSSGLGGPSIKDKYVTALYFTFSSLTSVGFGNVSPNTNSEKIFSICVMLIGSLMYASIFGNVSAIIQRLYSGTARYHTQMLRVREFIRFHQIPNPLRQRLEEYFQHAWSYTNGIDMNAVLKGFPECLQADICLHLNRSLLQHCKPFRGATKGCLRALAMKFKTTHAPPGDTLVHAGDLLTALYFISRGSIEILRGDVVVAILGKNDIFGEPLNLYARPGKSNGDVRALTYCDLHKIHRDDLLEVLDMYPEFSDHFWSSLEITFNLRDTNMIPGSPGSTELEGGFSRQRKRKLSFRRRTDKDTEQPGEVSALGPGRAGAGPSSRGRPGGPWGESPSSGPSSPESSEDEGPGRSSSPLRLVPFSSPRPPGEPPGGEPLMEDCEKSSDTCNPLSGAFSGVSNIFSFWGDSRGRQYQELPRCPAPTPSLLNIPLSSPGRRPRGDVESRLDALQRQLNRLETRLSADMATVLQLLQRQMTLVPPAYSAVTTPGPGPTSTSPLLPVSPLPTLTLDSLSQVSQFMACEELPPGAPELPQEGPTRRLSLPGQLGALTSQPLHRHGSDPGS

Row | Structure (SMILES) | hERG current change (%, negative = inhibition) at 1uM
1 | Cc1nc(N)sc1C(=O)N/N=C/c1ccc([N+](=O)[O-])cc1 | 12.4%
2 | CCOC(=O)c1c(C)n(-c2ccc(C)cc2)c2ccc(OCC(O)CNCCCO)cc12.Cl (centres unmarked) | 6.85%
3 | CC(C)NC(=S)NC1(C)CCS(=O)(=O)C1 (centres unmarked) | 8.84%
4 | COc1cccc(C(=O)Nc2nc(-c3ccccc3)c(-c3ccccc3)o2)c1 | 7.38%
5 | COc1ccc(C(=O)n2nc(C#N)c(C#N)c2N)cc1 | 14.9%
6 | Cc1c(S(=O)(=O)c2ccccn2)c(N)n(Cc2ccccc2)c1C | 9.74%
7 | CCOC(=O)c1ccc(N2C(=O)CC(N3CCC(O)(c4ccc(Br)cc4)CC3)C2=O)cc1 (centres unmarked) | 4.01%
8 | CCN(CC)CCCNC(=O)c1cc2c(-c3ccc(Cl)cc3)nn(C)c2s1 | -6.9%
9 | O=C(c1c[nH]c(=O)n(-c2ccccc2)c1=O)N1CCc2ccccc21 | 9.21%
10 | CCC(c1nnc(SCC(=O)Nc2cc(Cl)ccc2C#N)n1C1CCCCC1)N(C)C (centres unmarked) | 9.91%
11 | Cc1ccc(NC(=O)/C=C/c2cccc([N+](=O)[O-])c2)nc1 | 7.93%
12 | O=C1CC(c2ccco2)CC(O)=C1C=Nc1ccccc1-c1ccccc1 (centres unmarked) | 10.1%
13 | O=C(NCCSc1ccccc1)c1ccc(Br)cc1 | 10.3%
14 | COc1cccc(NC(=O)Cn2c3ccc(F)cc3c3nc4n(c(=O)c32)CCCS4)c1 | 12.2%
15 | CC[C@H](C)[C@@H](C(=O)N1CCNCC1)n1cc([C@@H](N)CO)nn1.Cl | -4.1%
16 | COc1ccccc1N1CCN(C(=O)CSc2nc(-c3ccccc3)cc(=O)[nH]2)CC1 | 3.09%
17 | [N-]=C=C1C(=S)NC(=O)[C@H]([n+]2ccccc2)[C@H]1c1ccc(Cl)cc1 | 13.9%
18 | O=S(=O)(N/N=C/c1ccc2c(c1)OCCO2)c1ccc(Cl)cc1 | -2.64%
19 | COc1ccc(CNC(=O)c2ccc(Cl)c(NC3=NC4CS(=O)(=O)CC4S3)c2)cc1 (centres unmarked) | 11.1%

Row | Structure (SMILES) | hERG current change (%, negative = inhibition) at 1uM
20 | CN1CCN(C(=O)C2CCC(=O)N(CCc3cccc(F)c3)C2)CC1 (centres unmarked) | 10.6%
21 | Cc1ccccc1NC(=O)N(C(C)C)C(C)C | 0.671%
22 | CC(=O)N1CC(C)Sc2ccc(S(=O)(=O)NCCc3ccc(C)cc3)cc21 (centres unmarked) | 4.69%
23 | COc1ccc(CNC(=S)NCc2ccc(OC)cc2)cc1 | 11.2%
24 | O=C(O)CC(NC(=O)C12CC3CC(CC(C3)C1)C2)c1ccc2c(c1)OCO2 (centres unmarked) | 12.3%
25 | CCOc1ccc(OCC)c(NC(=O)C2C3C=CC(O3)C2C(=O)NCc2ccco2)c1 (centres unmarked) | -6.3%
26 | O=C1C2CCCN2C(c2cccs2)N1c1ccccn1 (centres unmarked) | 12.5%
27 | CC(=O)Nc1ccc(OS(=O)(=O)c2cc(Cl)ccc2C)cc1 | 13.6%
28 | Cc1cc(C)nc(N(C#N)Cc2cccc3ccccc23)n1 | 15.9%
29 | CCOC(=O)N1CCC(NC(=O)Cc2cn(C)c3ccccc23)CC1 | 3.15%
30 | CCNC(=S)NCc1ccc(Cl)cc1 | -2.06%
31 | COc1ccc(C(CNC(=O)c2cccc(NS(=O)(=O)c3ccc(C)c(F)c3)c2)N(C)C)cc1 (centres unmarked) | -17.5%
32 | COc1ccc(C(=O)NCCCSc2ccccc2)cc1F | 13.3%
33 | COCC(O)CSc1c([N+](=O)[O-])nc(C)n1Cc1ccc(OC)c([N+](=O)[O-])c1 (centres unmarked) | -3.3%
34 | COc1ccccc1N1CCN(S(=O)(=O)c2ccc3c(c2)CC(C)N3C(C)=O)CC1 (centres unmarked) | 3.56%
35 | Cc1cc(C)c(S(=O)(=O)Nc2ccccn2)c(C)c1 | 12.8%
36 | CN1c2ccc([N+](=O)[O-])cc2C(C)(C)C12C=Cc1cc(C(=O)O)ccc1O2 (centres unmarked) | 13%
37 | CC(C)CNC(=O)COC(=O)CCC(=O)c1ccc(F)cc1 | 6.41%
38 | CC1CCN(C(=O)c2[nH]cnc2C(=O)N[C@H](C)c2ccccc2)CC1 | 14.9%

Row | Structure (SMILES) | hERG current change (%, negative = inhibition) at 1uM
39 | COc1ccc(N2CCN(C(=O)/C=C/c3ccco3)CC2)cc1 | 6.52%
40 | CCOC(=O)N1CCN(S(=O)(=O)c2cc(-c3nn4c(C)nnc4c4ccccc34)ccc2C)CC1 | -12.2%
41 | COc1ccc(N(C(=O)c2cccnc2)S(=O)(=O)c2ccc(Cl)cc2)cc1 | 4.89%
42 | CN(C)S(=O)(=O)n1cc(/C=C(\NC(=O)c2ccccc2F)C(=O)NCCCN2CCOCC2)c2ccccc21 | -3.1%
43 | CCOc1ccc(N2C(=O)CSC2=S)cc1 | 19%
44 | CCOc1ccc(N(CC(=O)Nc2ccc(OC)cc2)C2=NC3CS(=O)(=O)CC3S2)cc1 (centres unmarked) | 13.3%
45 | O=C(CSc1nc2ccccc2c(=O)n1-c1ccccc1)NCc1ccc2c(c1)OCO2 | 13.5%
46 | CCOC(=O)c1ccccc1-n1nnnc1C | 13.4%
47 | NNC(=O)c1ccc(NS(=O)(=O)c2ccc(Br)cc2)cc1 | 5.7%
48 | COc1ccc(OCC(=O)N2CCOCC2)cc1 | 2.53%
49 | Cc1ccc(C(=O)NNC(=O)/C=C\C(=O)O)cc1 | 11.2%
50 | Nn1cnnc1N/N=C/c1ccc(F)cc1 | 9.92%
51 | O=C(c1ccsc1)N1CCCC(N2CCN(c3cccc(C(F)(F)F)c3)CC2)C1 (centres unmarked) | -11.4%
52 | O=C(Cn1cnc2ccccc2c1=O)N1CCN(Cc2ccc3c(c2)OCO3)CC1 | 2.38%
53 | CCOc1ccc(Nc2nc(N)c([N+](=O)[O-])c(NCc3ccccc3)n2)cc1 | 16%
54 | CCC(NC(=O)Nc1cc(C)on1)(C(F)(F)F)C(F)(F)F | 9.27%
55 | CCn1c(COc2ccccc2)nnc1SCC(=O)C(C)(C)C | -7.57%
56 | Cc1cccc(S(=O)(=O)Nc2ccc3c(c2)OCCO3)c1 | 16.1%
